Laboratory results reported in PubChem BioAssay AID504832 (National Center for Advancing Translational Sciences (NCATS), 2011).
Out of some 310,000 compounds screened, about 18,000 (5.8%) were called active. The shares of active, inactive and inconclusive entries below differ from those in the screen. Calls come from the whole dose curve; as a rule, active = well fitted inhibition curve with a large enough effect; inconclusive = small, poorly fitted or top-dose-only effect, or another doubt; inactive = no such curve, though single readings can be large or run the other way. No potency is given beside an inconclusive call; the fits are too rough.

Test: Primary qHTS for delayed death inhibitors of the malarial parasite plastid, 48 hour incubation
Settings: P. falciparum luciferase growth in erythrocytes; series mostly up to 28.7 µM; activity change, negative = inhibition: at the top concentration
In short: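 Growth was read as firefly luciferase luminescence after a 48 h, 37 C, 5% CO2 exposure of compounds to reporter-bearing P. falciparum cultures (0.1% parasitemia, 2% hematocrit final) in Albumax-supplemented RPMI 1640.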
% is set by controls: 0 for no effect and ±100 for the full control effect; potency is the fitted concentration of half-maximal effect; tags give direction and shape of the fitted curve.

Structure (SMILES)	Potency	activity change, negative = inhibition
CC(C)CN(C(=O)C1CSC2(C)CCC(=O)N12)c1c(N)n(Cc2ccccc2)c(=O)[nH]c1=O (centres undefined)	inconclusive [inhibitor, full curve, poor fit]	–
NC(=O)c1cnn(-c2ccc3ccccc3c2)c1N	–	inactive: 102%
Cc1ccc(C)c(OCC(=O)N2CCc3ccccc3C2)c1	–	inactive: 20.5%
CCOC(=O)c1cnc2c(C)cc(C)cc2c1NCCCN1CCOCC1	inconclusive [inhibitor, partial curve]	–
CC1CCCCC1NC(=O)COC(=O)c1cccn1C (centres undefined)	–	inactive: -3.47%
C=C1C(=O)O[C@@H]2[C@@H]1CC/C(C)=C\CC[C@@]1(C)O[C@H]21	inconclusive [inhibitor, single point]	–
N#Cc1ccc(C23CC4(C2)[C@H](CN(CC2CCCCC2)[C@@H]4c2ccccc2)C3c2ccc(C(F)(F)F)cc2)cc1 (some centres undefined)	active: 10.4 µM	–
COc1ccc(C(C(=O)NC2CCCC2)N(C(=O)c2snc(-c3ccc(F)cc3)c2N)c2ccc(F)cc2)cc1 (centres undefined)	inconclusive [inhibitor, partial curve, poor fit]	–
O=C(Nc1cccc(C(=O)Nc2cccc(Br)c2)c1)c1ccccc1	inconclusive [inhibitor, single point]	–
c1ccc(-c2nc(NC3CC3)nc(-n3ccnc3)n2)cc1	active: 13.1 µM	–
Cc1ccc(S(=O)(=O)N(C)C)cc1NC(=O)CSc1nncs1	inconclusive [inhibitor, full curve, poor fit]	–
O=C(CN1C(=O)NC(Cc2c[nH]c3ccccc23)C1=O)Nc1ccc(Br)cc1F (centres undefined)	inconclusive [inhibitor, partial curve]	–
COc1ccc(-c2cc(-c3ccccc3)nc(-c3ccc4c(c3)NC(=O)CO4)c2)cc1	inconclusive [inhibitor, single point]	–
CCn1c(SCc2ccc(F)cc2)nc2c(c1=O)SCC2	inconclusive [inhibitor, partial curve, poor fit]	–
Cc1ccc(C)c(N2CCN(C(=O)CCC(=O)Nc3nnc(C(F)(F)F)s3)CC2)c1	–	inactive: 3.04%
CC(C#N)(NC(=O)CN1CCN(S(=O)(=O)c2ccc(Br)cc2Cl)CC1)C1CC1 (centres undefined)	inconclusive [inhibitor, single point]	–
COc1cc(C(=O)NC2CCN(Cc3ccccc3)CC2)cc(Cl)c1OC	inconclusive [inhibitor, single point]	–
Nc1c(N(CCC2=CCCCC2)C(=O)c2ccccc2F)c(=O)[nH]c(=O)n1Cc1ccccc1	inconclusive [inhibitor, single point]	–
N#C/C(C(N)=O)=C1/SC(Cc2ccc(F)cc2)C(=O)N1c1ccccc1 (centres undefined)	inconclusive [inhibitor, full curve, poor fit]	–
Cc1nccn1-c1c2c(c(C#N)c3nc4ccccc4n13)CCC2	–	inactive: -17.4%
O=C(CSc1nnc2n(C3CCCC3)c(=O)c3ccccc3n12)N1CCCCCC1	inconclusive [inhibitor, single point]	–
Cc1nnc2ccc(-c3ccc(NS(=O)(=O)c4ccccc4F)cc3)nn12	inconclusive [inhibitor, single point]	–
NC(=O)c1ccc(OCC(F)(F)C(F)(F)C(F)(F)C(F)(F)C(F)(F)C(F)F)cc1	–	inactive: 7.01%

Structure (SMILES)	Potency	activity change, negative = inhibition
Cc1ccc(NC(=O)CC(NC(=O)c2ccccc2Cl)c2ccccc2)nc1 (centres undefined)	–	inactive: -6.8%
COc1ccc(C(=O)CC(Nc2ccc([N+](=O)[O-])cc2)c2ccc(OC)cc2)cc1 (centres undefined)	inconclusive [inhibitor, single point]	–
CN1C[C@@H]2C(c3ccccc3)C3(c4ccc(C#N)cc4)CC2(C3)[C@H]1c1ccccc1 (some centres undefined)	active: 10.4 µM	–
CCCc1cc(=O)oc2cc(C)cc(OCC(=O)N[C@@H](CSCc3ccccc3)C(=O)O)c12	inconclusive [inhibitor, partial curve, poor fit]	–
COc1cc(NC(=O)c2ccco2)c(OC)cc1NC(=O)CCC(=O)Nc1cc(C)ccc1C	inconclusive [inhibitor, partial curve]	–
NC(=O)c1c(NC(=O)C(=O)NCCCN2CCOCC2)sc2c1CCCC2	inconclusive [inhibitor, single point]	–
COc1cccc(CN(C)C(=O)CSCC(=O)Nc2ccc(C)cc2)c1OC	inconclusive [inhibitor, full curve, poor fit]	–
O=C1Nc2ccccc2C12NCCc1c2[nH]c2ccccc12 (centres undefined)	active: 6.57 µM	–
CC1(C)C(c2cccs2)=NC(c2ccccc2)N1O (centres undefined)	–	inactive: 39.4%
CCOc1ccc(C(=O)Nc2cc3c(cc2N2CCCC2)n(CC)c(=O)n3CC)cc1OCC	inconclusive [inhibitor, partial curve, poor fit]	–
COc1ccc(C)cc1S(=O)(=O)NCC(c1ccco1)N1CCc2ccccc2C1 (centres undefined)	inconclusive [inhibitor, partial curve, poor fit]	–
Cc1ccc(S(=O)(=O)N(C)c2ccc(C(=O)Nc3ccccn3)cc2)cc1	inconclusive [inhibitor, single point]	–
CCn1c(SCC(=O)N2CCCc3ccccc32)nc2ccccc2c1=O	inconclusive [inhibitor, partial curve, poor fit]	–
CCN1C(=O)CC(NCc2ccc(S(N)(=O)=O)cc2)C1=O (centres undefined)	–	inactive: 9.85%
CCC(C)[C@H](NC(=O)N1CCn2c1nc1ccccc12)C(=O)NCc1ccccc1 (some centres undefined)	inconclusive [inhibitor, full curve, poor fit]	–
Nc1nc(-c2ccc(Cl)cc2)c(N=Nc2ccc(S(=O)(=O)N3CCOCC3)cc2)s1	–	inactive: -5.36%
COc1ccc(C(=O)NC2CCc3ccccc32)cc1OC1CCN(C(C)=O)CC1 (centres undefined)	inconclusive [inhibitor, partial curve]	–
Cc1ccc2c(c1)C=CC(C)N2C(=O)c1ccccc1 (centres undefined)	inconclusive [inhibitor, single point]	–
COc1ccc2[nH]c3c(c2c1)CCN1C(=O)N([C@@H](C)C(=O)NCCc2ccc(OC)c(OC)c2)C(=O)[C@]31C	inconclusive [inhibitor, single point]	–
CC(C)C(=O)Nc1ccc(-c2csc(-c3ccccc3)n2)cc1	–	inactive: 48.5%
COC(=O)NC1(C(=O)O)CCCC1	–	inactive: 13%
COc1cc(C(c2sc3nc(C)nn3c2O)N2CCc3ccccc3C2)cc(OC)c1OC (centres undefined)	inconclusive [inhibitor, single point]	–
Cc1ccc(-c2cc(C(=O)NCCCn3ccnc3)no2)cc1	–	inactive: -19.4%

Structure (SMILES)	Potency	activity change, negative = inhibition
COc1ccc(-n2c(Cc3cccn3C)nnc2SCC(=O)NCCc2ccccc2)cc1	inconclusive [inhibitor, partial curve, poor fit]	–
O=C(Cc1ccccc1)NN1C(=O)C2C(C1=O)C1C=CC2C12CC2 (centres undefined)	–	inactive: -5.63%
NC(=O)c1cc(S(=O)(=O)NCc2ccc(Br)cc2)cs1	inconclusive [inhibitor, single point]	–
CC(=O)NCC(=O)NC(Cc1ccccc1)C(N)=O (centres undefined)	–	inactive: 15.5%
Cc1cc(C)n(-c2nc3c(c(=O)[nH]c(=O)n3C)n2Cc2ccc(F)cc2)n1	–	inactive: -8.08%
CCCN1C(=O)c2ccccc2NC1c1cc(OC)c(OC)c(OC)c1 (centres undefined)	inconclusive [inhibitor, single point]	–
CCn1c2ccccc2c2nnc(NN)nc21	inconclusive [inhibitor, single point]	–
CCCCOCCCNC(=O)Cc1cccs1	inconclusive [inhibitor, single point]	–
CN1CCCC[C@@H]1CCN1c2ccccc2Sc2ccc(S(C)=O)cc21 (some centres undefined)	inconclusive [inhibitor, single point]	–
COc1cccc(NC(=O)CN(C)C(=O)Cc2cccc3ccccc23)c1	inconclusive [inhibitor, single point]	–
O=C(CSCC(=O)Nc1nc(-c2ccc3c(c2)OCO3)cs1)Nc1nccs1	inconclusive [inhibitor, partial curve, poor fit]	–
Cc1cccc(CN2CCCC(C(=O)c3ccc(C(F)(F)F)cc3)C2)n1 (centres undefined)	active: 2.33 µM	–
CCC(C(=O)N1CCc2cc(OC)c(OC)cc2C1)c1ccccc1 (centres undefined)	inconclusive [inhibitor, partial curve]	–
O=C(c1cccc(Br)c1)c1cn(-c2ccccc2)nc1C(=O)c1ccccc1	active: 4.65 µM	–
Cc1ccc2c(c1)N(C(=O)CCC(=O)NCCCN1CCN(C)CC1)CC(C)O2 (centres undefined)	–	inactive: 6.56%
O=C(Cc1ccccc1)N1CCN(CC2CC3C=CC2C3)CC1 (centres undefined)	inconclusive [inhibitor, single point]	–
COc1cccc(N2C(=O)CC(N3CCc4ccccc4C3)C2=O)c1 (centres undefined)	–	inactive: 2.48%
C#CCNC(=O)C1=C[C@H](C2CCCCC2)C[C@H](OCCCCO)O1	inconclusive [inhibitor, single point]	–
COc1cc(OC)cc(-c2c(-c3cccs3)c3cc(-c4cccc5[nH]ccc45)ccc3n2C)c1	active: 2.33 µM	–
Cn1c(C=O)c(-c2ccc3c(c2)OCCO3)c2ccccc21	inconclusive [inhibitor, single point]	–
O=C(/C(=C(\[O-])c1ccccc1)[n+]1ccc2ccccc2c1)c1ccc([N+](=O)[O-])cc1	–	inactive: 9.47%
COc1ccc(F)cc1S(=O)(=O)n1nc(C)cc1C	–	inactive: -4.29%
CN(C)CCCN(CCCNC(=O)/C=N/O)Cc1ccccc1	–	inactive: 0.809%
